Results taken from PubChem BioAssay AID463173 (ICCB-Longwood Screening Facility, Harvard Medical School, 2010).
The whole screen tested about 52,000 compounds, of which about 4,300 (8.3%) were called active. Rule as the data show it: active = survival mostly below about 52% (no sharp cut-off); inactive = mostly above about 56%. Some of the results follow.

These molecules were tested on DeltatarO mutant (assay: S. aureus survival, RN4220 and DeltatarO strains – OD600, teichoic acid synthesis inhibitors, primary screen (AID 463173)). Settings: S. aureus RN4220 wild type/DeltatarO growth, OD600, 18 h, stronger effect = lower value, screened at 18.75 µg/mL (by protocol).

SMILES | survival
COC(=O)c1ccc(NC(=O)Cn2cncn2)cc1 | inactive: 83%
CC1CCN(CCCNC(=O)CN2C(=O)CSc3ccc(S(=O)(=O)N4CCCCC4)cc32)CC1 | inactive: 71%
COc1ccc(C(C)NC(=O)CN(c2cc(OC)ccc2OC)S(=O)(=O)c2ccccc2)cc1 (stereo not drawn) | inactive: 77%
COc1ccc(-c2noc(C3CCCN(C(=O)Nc4ccccc4)C3)n2)cc1 (stereo not drawn) | inactive: 71%
CCOc1ccccc1-n1c(N)c(C(=O)OC)c2nc3ccccc3nc21 | inactive: 80%
COc1ccc(-c2nsc(NC(=O)c3oc4ccc(Cl)cc4c3C)n2)cc1 | inactive: 61%
O=C(Nc1ccc(F)cc1)c1nc(SCc2ccccc2F)ncc1Cl | inactive: 99%
N#C/C(=C/c1ccc(O)cc1)c1nc(-c2ccc(-c3ccccc3)cc2)cs1 | active: 9%
Cc1nc(-c2cccc(F)c2)sc1CCNC(=O)Cc1ccc(F)cc1 | inactive: 107%
CCCSC1=NC2(CCN(C(=O)NC3CCCCC3)CC2)N=C1c1ccc(OC)cc1 | inactive: 72%
O=c1c2c3c(sc2nnn1CCCCOc1ccc(Cl)cc1)CCCC3 | inactive: 108%
COc1cc(-c2noc(-c3cc4cccc(C)c4oc3=O)n2)cc(OC)c1OC | inactive: 92%
N#CC1=C2SCCN2C(=O)C(C#N)C12CCCCC2 (stereo not drawn) | inactive: 99%
COc1cccc(CNC(=O)CN(c2ccc(C)cc2)S(=O)(=O)N(C)C)c1OC | inactive: 94%
COc1ccc(-c2csc3ncnc(Nc4ccc(OC)cc4OC)c23)cc1 | inactive: 64%
COc1cccc(-c2nc3c(C#N)c[nH]n3c2NC2CCCCC2)c1 | inactive: 72%
N#CC1=C(N)N(c2ccc(Cl)cc2)C2=C(C(=O)CCC2)C1c1cc(CN2CCOCC2)cs1 (stereo not drawn) | inactive: 59%
COc1cc(NS(=O)(=O)c2cc(Br)cc3c2N(C(C)=O)C(C)C3)cc(OC)c1 (stereo not drawn) | active: 20%
O=C(NC1CCCCC1)c1ccc2c(c1)N(Cc1ccc(F)cc1)C(=O)c1ccccc1S2(=O)=O | inactive: 105%
COc1cccc(CNC(=O)Cn2c(=O)cc(C)c3c(C)nn(C)c32)c1OC | inactive: 80%
Cc1cccc(N(C)C(=O)C2CCC(CNS(=O)(=O)c3cccc4nsnc34)CC2)c1 (stereo not drawn) | inactive: 65%
Cc1ccc(OCCn2c(CNc3ccccc3C)nc3ccccc32)cc1 | active: 42%
Cn1c(C(=O)NCc2ccccc2Cl)cc2sc(Cl)cc21 | inactive: 64%
Cc1cc(NC(=O)c2cnn(-c3ccccc3)c2-n2cccc2)ccc1Br | inactive: 63%

SMILES | survival
COc1ccc(CCC(=O)NCc2nc3cccnc3n2Cc2cccc(OC)c2)cc1 | inactive: 101%
COc1ccc(Cl)cc1NC(=O)Cn1nc(C(F)(F)F)c2c1CCC2 | inactive: 72%
CCC1CN(C(=O)N2CCC(C(=O)N3CCN(c4ccc(F)cc4)CC3)CC2)c2ccccc2O1 (stereo not drawn) | inactive: 62%
CCCCc1nn2c(=O)cc(COC(=O)C(C)Oc3ccccc3)nc2s1 (stereo not drawn) | inactive: 82%
Cc1c(C(=O)Nc2ccccc2Br)oc2ccc(S(=O)(=O)N3CCOCC3)cc12 | inactive: 97%
CCOC(=O)N1CCc2c(sc3c2c(=O)n(-c2ccc(CC)cc2)c(=O)n3CC(=O)c2ccccc2)C1 | inactive: 82%
COc1ccc(NS(=O)(=O)c2ccc3c(c2)CCCN3C(=O)C2CCC2)cc1OC | inactive: 105%
Cc1ccccc1OCC(=O)Nc1c(C)ccc2nsnc12 | inactive: 68%
CC(C)c1ccc(S(=O)(=O)c2nnn3c2nc(N2CCOCC2)c2sccc23)cc1 | inactive: 97%
CC1CCN(S(=O)(=O)c2ccc3c(ccn3CC(=O)NCc3ccc(N(C)C)cc3)c2)CC1 | inactive: 77%
Cc1cc(C)n2ncc(C(=O)Nc3cccc(C(F)(F)F)c3)c2n1 | inactive: 90%
O=C(CSc1nnc(-c2ccncc2)n1-c1ccccc1)Nc1ccc(Br)cc1 | inactive: 73%
CCOc1cc(C)c(C(C)C)cc1S(=O)(=O)n1ccnc1CC | active: -3%
CCOc1ccc2nc(N3CCC(C(=O)Nc4ccc(Br)cc4F)CC3)sc2c1 | inactive: 81%
COc1ccc2c(c1)CC(NC(=O)Nc1ccc(NC(C)=O)cc1)CO2 (stereo not drawn) | inactive: 117%
CC(C)CNC(=O)c1c(-c2ccccc2)c(-c2ccccc2)nn(C)c1=O | inactive: 50%
Cc1ccccc1Cn1c(=O)n(CCCCC(=O)NCc2ccccc2Cl)c(=O)c2ccccc21 | inactive: 93%
O=C(NCc1ccccc1Cl)c1ccc(NC(=O)c2nsc3ccccc23)cc1 | inactive: 84%
COc1ccccc1CNC(=O)C1CCN(Cc2cc3ccccc3n2Cc2cccc(C)c2)CC1 | inactive: 68%
C[n+]1cccc(O)c1I | inactive: 53%
CCOC(=O)c1c(C)oc2nc(C)nc(NCCCN3CCN(c4cc(Cl)ccc4C)CC3)c12 | inactive: 83%
CCOC(=O)c1cccc(NC(=O)Nc2ccc3c(c2)N(C)C(=O)c2ccccc2S3)c1 | inactive: 92%
Cc1ccc(-c2noc(-c3nnn(CC(=O)Nc4cccc(C(F)(F)F)c4)c3N)n2)cc1 | inactive: 74%
CCCNC(=O)c1c(NC(=O)c2ccc(C)cc2)sc2c1CCCCC2 | inactive: 65%

SMILES | survival
CC(=O)N1CCOc2cc(S(=O)(=O)Nc3cc(C(F)(F)F)ccc3Cl)c(C)cc21 | inactive: 94%
O=C1S/C(=C/c2ccccc2)C(=O)N1CO | inactive: 79%
O=S(=O)(NC1CCCC1)c1ccc(-n2cnnn2)cc1 | inactive: 94%
COc1ccc2c(c1)c1c(c(=O)n(Cc3ccccc3)c(=O)n1Cc1ccccc1)n2C | active: -1%
CCOC(=O)Nc1cccc(C(=O)O)c1 | inactive: 71%
CCSc1ncc(Cl)c(C(=O)N(Cc2ccc(C(C)(C)C)cc2)C2CCS(=O)(=O)C2)n1 (stereo not drawn) | active: 42%
O=C(O)c1cccnc1SCc1cccc(Cl)c1 | inactive: 79%
COc1ccc(S(=O)(=O)Cc2ccc(C(=O)N3CCN(c4cc(C)ccc4C)CC3)o2)cc1 | inactive: 130%
CS(=O)(=O)N1C(=O)CCC1=O | inactive: 101%
O=C(Nc1cccc(-c2nc3ccccc3[nH]2)c1)c1c(F)cccc1F | active: 37%
O=C(NN=C1CCCC1)c1cc(-c2ccccc2)n[nH]1 | inactive: 111%
O=C(NCCCN1CCN(c2ccccc2F)CC1)C1COc2ccccc2C1 (stereo not drawn) | inactive: 92%
Cc1ccc(C(=O)NCC(=O)OCc2cc(=O)n3nc(C4CC4)sc3n2)cc1 | inactive: 68%
CCCS(=O)(=O)N1CCN(C(=O)COc2cccc(C)c2)CC1 | inactive: 78%
Clc1c(-c2nnc(-c3cccs3)o2)sc2ccccc12 | inactive: 59%
COc1cc(-c2nc3ccc(Cl)cn3c2Nc2ccc3c(c2)OCO3)ccc1O | inactive: 65%
Cn1cc(-c2cc3n(n2)CCC(=O)N3CCCC(=O)Nc2ccccc2Cl)c2ccccc21 | active: -5%
Cc1ccccc1S(=O)(=O)Cc1ccc(C(=O)NCc2ccccc2Cl)o1 | inactive: 56%
Nc1nn(-c2ccccc2)nc1C(=O)OCc1ccccc1Br | active: 11%
Cc1ccc(NC(=O)c2cc(CN3CCOCC3)on2)cc1Cl | inactive: 119%
CC1=C(C(=O)Nc2ccc(C)cc2Cl)C2(CCCCC2)OC1=O | inactive: 128%
COc1cc2ccccc2cc1C(=O)Nc1cccc(-c2nc3ccccc3o2)c1 | active: 7%
COc1ccc(N2CCN(C(=O)c3cn(C)c4ccc(S(=O)(=O)N(C)C5CCCCC5)cc4c3=O)CC2)cc1 | inactive: 93%
COc1ccc(CNC(=O)C2CCN(S(=O)(=O)c3c(C)noc3/C=C/c3cccs3)CC2)cc1 | inactive: 93%

SMILES | survival
Cc1ccc(NC(=O)c2c(C(=O)Nc3ccccc3)sc3nc(C)cc(=O)n23)cc1 | inactive: 59%
CC(C(=O)NCc1cccc(Br)c1)n1ncn2cccc2c1=O (stereo not drawn) | inactive: 69%
Cc1ccccc1NC(=O)CCOc1ccccc1 | inactive: 65%
CCOC(=O)c1noc2ncn(CC(=O)Nc3cc(Cl)ccc3OC)c(=O)c12 | inactive: 92%
O=C(O)Cc1sc(Nc2ccc(C(=O)O)cc2)nc1-c1ccccc1 | inactive: 86%
COc1ccc2c(c1)CCc1c(C(=O)Nc3c(C)nn(Cc4c(Cl)cccc4Cl)c3C)noc1-2 | inactive: 114%
CC(Sc1nc(-c2ccccc2)cc(C(F)(F)F)n1)C(=O)NN1CCCCC1 (stereo not drawn) | inactive: 72%
Cc1cccc(NC(=O)CC2S/C(=N/c3nccs3)N(C)C2=O)c1 (stereo not drawn) | inactive: 90%
CCOC(=O)c1c(C)[nH]c(C)c1S(=O)(=O)NCC(=O)Nc1ccc(CC)cc1 | inactive: 96%
CCc1ccccc1NC(=O)c1cc2sc(Cl)cc2n1CC | inactive: 77%
O=C(c1cccs1)c1cn(CCOc2ccc(F)cc2)c2ccccc12 | inactive: 128%
CCn1c(=O)c2sccc2n2c(CCC(=O)N3CCN(c4ccccc4OC)CC3)nnc12 | inactive: 136%
O=C(NCCCCc1ccccc1)c1nn(-c2ccccc2F)nc1CO | inactive: 83%
CC(C)OCCCn1c(SCC(N)=O)nc2c(sc3ccccc32)c1=O | inactive: 92%
O=C(c1ccc(CS(=O)c2ccccc2Cl)o1)N1CCN(c2cccc(C(F)(F)F)c2)CC1 (stereo not drawn) | inactive: 60%
O=S1(=O)CCC(N2C(=S)SC3CS(=O)(=O)CC32)C1 (stereo not drawn) | inactive: 96%
COc1ccc(-c2nnc(SCC(=O)Nc3ccccc3C)o2)cc1OC | inactive: 82%
COc1ccccc1CC(=O)NC1CC(C)(C)NC(C)(C)C1 | inactive: 70%
CCCOc1ccc(C(=O)NCC(c2ccc(OC)cc2)N2CCCCC2)cc1 (stereo not drawn) | inactive: 84%
CC(C)NC(=O)Cn1ccc2cc(S(=O)(=O)N3CCCCCC3)ccc21 | inactive: 77%
COc1ccc(-c2cn(-c3ccc(C)cc3)c(S(=O)(=O)CC(=O)Nc3ccccc3)n2)cc1 | inactive: 172%
